# Test results reported in PubChem BioAssay (NCATS).
# “And” between values parts separate entries of the source, which are not always exact repeats. Identical values can stand only once. Some of the results follow. Shown are side measurements of this screen, not its main read-out; they come without a call. The list favours compounds with an active or inconclusive main result.
# Experiment: qHTS Assay for Lipid Storage Modulators (AID 1519)
# Conditions: Drosophila S3 cells, BODIPY lipid droplet/cell ratio, laser cytometry; measured here: lipid channel max response; cells loaded with oleic acid
# How it was run: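 Cells seeded at 5,000 per well were treated with compounds over a concentration series and loaded with oleic acid (400 uM, as added). Lipid droplet fluorescence (488 nm excitation, 500-530 nm channel) was read by laser-scanning cytometry and normalized to 20 uM Triacsin C.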
row,SMILES,max response
1,Cc1cnc(CNc2cc(-c3cccnc3)ncn2)cn1,48.2%
2,CS(=O)(=O)N1CCC2(CC1)CN(c1ncccn1)C2,40.4%
3,Cc1noc(C)c1-c1ccc2ncnc(Nc3ccccc3)c2c1,45.1%
4,O=c1c(-c2cccc(Cl)c2)nc2cncnc2n1Cc1ccc(F)cc1,2.45%
5,COc1ccc(CNc2ncncc2-c2cccc(C#N)c2)c(OC)c1,35.6%
6,O=S(=O)(c1ccccc1)N1CCC2(CCN(c3ncccn3)CC2)CC1,34.5%
7,CCN(Cc1ccncc1)C(=O)[C@@H](CO)c1ccccc1,63.5%
8,COc1c2ccoc2nc2c(OC)c(OCC(O)C(C)(C)O)ccc12 (stereo not given),177%
9,N#CCCn1c(=O)c(CCc2ccccc2)nc2cnc(Oc3ccccc3)nc21,36.5%
10,COc1ccc(Cl)cc1N=Nc1ncc[nH]1,148%
11,O=c1c(-c2cccc(Cl)c2)nc2cncnc2n1-c1ccccc1,39.1%
12,CO/N=C(/C(=O)NC1C(=O)N2C(C(=O)O)=C(COC(N)=O)CSC12)c1ccco1 (stereo not given),43.6%
13,COc1ccc(Oc2ncc3nc(C)c(=O)n(Cc4cccs4)c3n2)cc1,8.39%
14,Cc1nc2cnc(N(C)C)nc2n(CCc2ccccc2)c1=O,26.6%
15,COc1ccc2[nH]cc(CCNc3ncncc3-c3ccccc3C(F)(F)F)c2c1,21.9%
16,COc1ccccc1CCn1c(=O)c(C)nc2cncnc21,51.9%
17,COc1ccc(CNc2nc(-c3c(C)noc3C)nc3ccccc23)c(OC)c1,9.79%
18,COc1ccc2[nH]cc(CCNc3nc(-c4cccc(C#N)c4)nc4ccccc34)c2c1,21.9%
19,Cc1ccccc1-c1cc(N(C)Cc2ccco2)ncn1,41.8%
20,CCCCN1CCC[C@@H]1CNC(=O)c1cc(C#N)c2ccccc2c1OC,138%

row,SMILES,max response
1,COC1(C2=NCCN2)COc2ccccc2O1 (stereo not given),-3.46%
2,CN(CC[C@@H](Oc1ccc(-c2ccccc2)cc1)c1ccc(F)cc1)CC(=O)O,98.4%
3,Cc1noc(C)c1-c1nc(NCCN2CCOCC2)c2ccccc2n1,37.2%
4,Cc1cnc(CNc2ncnc3ccc(-c4ccc(C(=O)N(C)C)cc4)cc23)cn1,54.9%
5,Cc1cnc(CNc2ncncc2-c2ccc3c(c2)OCO3)cn1,54.8%
6,COc1cc(/C=C/C(=O)N2CCC=CC2=O)cc(OC)c1OC,-82.6%
7,CC1(C)CC(=O)C([C@H]2C3=C(CC(C)(C)CC3=O)Oc3ccccc32)C(=O)C1,64.4%
8,CCCCCCc1c(C[C@H](N)C(=O)O)o[nH]c1=O,34% and 2.34%
9,COC(=O)[C@H]1[C@H]2CC3c4[nH]c5ccccc5c4CCN3C[C@@H]2CC[C@@H]1O (stereo not given in full),38.8%
10,CN(C)c1ccc(-c2nc(NCCc3cnc[nH]3)c3ccccc3n2)cc1,28.9%
11,CN(C)c1ncc2nc(-c3cccs3)c(=O)n(CCc3ccccc3)c2n1,43.9%
12,CN(C)c1ncc2nc(-c3cccs3)c(=O)n(-c3ccccc3)c2n1,-60.5%
13,C[C@H]1C=C2C=C[C@H](C)[C@H](CC[C@@H]3C[C@@H](O)CC(=O)O3)[C@H]2[C@@H](OC(=O)[C@@H](C)CCO)C1,39%
14,CCCN(CCC)C(=O)C(CCC(=O)O)NC(=O)c1ccccc1 (stereo not given),35.1%
15,O=c1c(CCc2ccccc2)nc2cnc(N3CCOCC3)nc2n1Cc1ccc(F)cc1,41%
16,COc1cccc(-c2nccc(NCc3cnc(C)cn3)n2)c1,46.8%
17,COCCn1c(=O)c(CCc2ccccc2)nc2cnc(N3CCOCC3)nc21,44.1%
18,c1ccc(CNc2ncnc3ccc(-c4ccoc4)cc23)cc1,36.5%
19,CC#CCOC(=O)c1c(C)nc2sc3c(c2c1N)CC[C@@H](O)C3,139%
20,CC(N)(C(=O)O)c1ccc(C(=O)O)cc1 (stereo not given),38.3%
